{"source": "the supplement of paper PMC8728848", "binders": {"B1": {"name": "PX14343B-bfa-546-20-546 (Bacteroides fragilis) (protein)", "chain": "CDLERYPLTDLSEETFWNSESNAELALTSLYRGSLTDGVEYNPSDWWSYHGMIMMEHLSDNAFDRRGENNPFFKISSGNLTADNAFIKRYWETSYKRIGYCNRFLVGIQNSSESEKKTRMIAEARFLRATQYFYLASYFKNVPLVENVLTGEEANNVTKTSQADILKWCVTEFTAAAADLPRFSAIPAGEAGRACKQAALAFLGRTCMLQKDWKSGAKAFHDIMELGDNAINANYQELFYPSTGTSNKENIFYIQYLENYLGTGLPQHALSAKDGGWSLVNPAADLYESYEFKDGTPFSYDDPRYDPSNLGKDRDPRLDYTIYYNGAIFMGTEYKMSPDYSAAKKEKLDYTSEASRTGFMMRKYFEESTPINDVQSANGLTPVIRYAEVLLGYLECLVEDNQTITQGILDETINAVRGRASVNMPPVTEVTPAKLREIVRHERRIELAMEGIRYWDIMRWGIAHEVLSQKIWGAPYPGSTQYATTTKEVDPTGNYRWYVGKRAFRNPTDYTWPIPQSEQNINPNLRD"}}, "assay_in_all_cases": "glycan array binding signal (z-score within array); higher = stronger binding", "details_in_all_cases": "glycan notation: IUPAC condensed, linker removed", "key": {"Fuc(a1-3)GlcNAc": {"biological_target": "Fuc(a1-3)GlcNAc", "summary_of_the_method": "(§1)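 The Consortium for Functional Glycomics database supplied 3228 glycan arrays, of which those lacking an available protein sequence were dropped. The binding signal, a within-array Z-score, was averaged across arrays of the same protein sequence and across linkers. Negative scores can be read as non-binding.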"}, "[1]": {"biological_target": "Fuc(a1-3)[Gal(b1-4)]Glc6S", "summary_of_the_method": "as §1"}, "[2]": {"biological_target": "Fuc(a1-3)[Gal(b1-4)]GlcNAc", "summary_of_the_method": "as §1"}, "[3]": {"biological_target": "Fuc(a1-3)[Gal(b1-4)]GlcNAc(b1-2)Man", "summary_of_the_method": "as §1"}, "[4]": {"biological_target": "Fuc(a1-3)[Gal(b1-4)]GlcNAc(b1-2)Man(a1-3)[Fuc(a1-3)[Gal(b1-4)]GlcNAc(b1-2)Man(a1-6)]Man(b1-4)GlcNAc(b1-4)GlcNAc", "summary_of_the_method": "as §1"}, "[5]": {"biological_target": "Fuc(a1-3)[Gal(b1-4)]GlcNAc(b1-2)Man(a1-3)[Fuc(a1-3)[Gal(b1-4)]GlcNAc(b1-2)Man(a1-6)]Man(b1-4)GlcNAc(b1-4)[Fuc(a1-6)]GlcNAc", "summary_of_the_method": "as §1"}, "[6]": {"biological_target": "Fuc(a1-3)[Gal(b1-4)]GlcNAc(b1-3)Gal(b1-3)[Fuc(a1-4)]GlcNAc", "summary_of_the_method": "as §1"}, "[7]": {"biological_target": "Fuc(a1-3)[Gal(b1-4)]GlcNAc(b1-3)Gal(b1-4)[Fuc(a1-3)]GlcNAc", "summary_of_the_method": "as §1"}, "[8]": {"biological_target": "Fuc(a1-3)[Gal(b1-4)]GlcNAc(b1-3)Gal(b1-4)[Fuc(a1-3)]GlcNAc(b1-3)Gal(b1-4)[Fuc(a1-3)]GlcNAc", "summary_of_the_method": "as §1"}, "[9]": {"biological_target": "Fuc(a1-3)[Gal(b1-4)]GlcNAc(b1-3)GalNAc", "summary_of_the_method": "as §1"}, "[10]": {"biological_target": "Fuc(a1-3)[Gal(b1-4)]GlcNAc(b1-6)GalNAc", "summary_of_the_method": "as §1"}, "[11]": {"biological_target": "Fuc(a1-3)[Gal(b1-4)]GlcNAc(b1-6)[Gal(b1-3)GlcNAc(b1-3)]Gal(b1-4)Glc", "summary_of_the_method": "as §1"}, "[12]": {"biological_target": "Fuc(a1-3)[Gal(b1-4)]GlcNAc6S", "summary_of_the_method": "as §1"}, "[13]": {"biological_target": "Fuc(a1-3)[Gal3S(b1-4)]Glc", "summary_of_the_method": "as §1"}, "[14]": {"biological_target": "Fuc(a1-3)[Gal3S(b1-4)]GlcNAc", "summary_of_the_method": "as §1"}, "[15]": {"biological_target": "Fuc(a1-3)[Gal3S(b1-4)]GlcNAc6S", "summary_of_the_method": "as §1"}, "[16]": {"biological_target": "Fuc(a1-3)[GalNAc(b1-4)]GlcNAc", "summary_of_the_method": "as §1"}, "[17]": {"biological_target": "Fuc(a1-3)[GalNAc(b1-4)]GlcNAc6S", "summary_of_the_method": "as §1"}, "Fuc(a1-4)GlcNAc": {"biological_target": "Fuc(a1-4)GlcNAc", "summary_of_the_method": "as §1"}, "Fuc(b1-3)GlcNAc": {"biological_target": "Fuc(b1-3)GlcNAc", "summary_of_the_method": "as §1"}, "Gal(a1-2)Gal": {"biological_target": "Gal(a1-2)Gal", "summary_of_the_method": "as §1"}, "Gal(a1-3)Gal": {"biological_target": "Gal(a1-3)Gal", "summary_of_the_method": "as §1"}, "Gal(a1-3)Gal(b1-3)GlcNAc": {"biological_target": "Gal(a1-3)Gal(b1-3)GlcNAc", "summary_of_the_method": "as §1"}, "[18]": {"biological_target": "Gal(a1-3)Gal(b1-3)GlcNAc(b1-2)Man", "summary_of_the_method": "as §1"}, "[19]": {"biological_target": "Gal(a1-3)Gal(b1-3)GlcNAc(b1-2)Man(a1-3)[Gal(a1-3)Gal(b1-3)GlcNAc(b1-2)Man(a1-6)]Man(b1-4)GlcNAc(b1-4)GlcNAc", "summary_of_the_method": "as §1"}, "[20]": {"biological_target": "Gal(a1-3)Gal(b1-3)GlcNAc(b1-3)GalNAc", "summary_of_the_method": "as §1"}, "[21]": {"biological_target": "Gal(a1-3)Gal(b1-3)GlcNAc(b1-6)GalNAc", "summary_of_the_method": "as §1"}, "[22]": {"biological_target": "Gal(a1-3)Gal(b1-3)[Fuc(a1-4)]GlcNAc(b1-2)Man(a1-3)[Gal(a1-3)Gal(b1-3)[Fuc(a1-4)]GlcNAc(b1-2)Man(a1-6)]Man(b1-4)GlcNAc(b1-4)GlcNAc", "summary_of_the_method": "as §1"}, "Gal(a1-3)Gal(b1-4)Glc": {"biological_target": "Gal(a1-3)Gal(b1-4)Glc", "summary_of_the_method": "as §1"}, "Gal(a1-3)Gal(b1-4)GlcNAc": {"biological_target": "Gal(a1-3)Gal(b1-4)GlcNAc", "summary_of_the_method": "as §1"}}, "note": "The list shows a part of the results."}
{"binder": "B1", "values": [{"measurement": "glycan array binding signal (z-score)", "setting": "Fuc(a1-3)GlcNAc", "value": -0.113}, {"measurement": "glycan array binding signal (z-score)", "setting": "[1]", "value": -0.118}, {"measurement": "glycan array binding signal (z-score)", "setting": "[2]", "value": -0.127}, {"measurement": "glycan array binding signal (z-score)", "setting": "[3]", "value": -0.113}, {"measurement": "glycan array binding signal (z-score)", "setting": "[4]", "value": -0.132}, {"measurement": "glycan array binding signal (z-score)", "setting": "[5]", "value": -0.11}, {"measurement": "glycan array binding signal (z-score)", "setting": "[6]", "value": -0.12}, {"measurement": "glycan array binding signal (z-score)", "setting": "[7]", "value": -0.111}, {"measurement": "glycan array binding signal (z-score)", "setting": "[8]", "value": -0.118}, {"measurement": "glycan array binding signal (z-score)", "setting": "[9]", "value": -0.114}, {"measurement": "glycan array binding signal (z-score)", "setting": "[10]", "value": -0.12}, {"measurement": "glycan array binding signal (z-score)", "setting": "[11]", "value": -0.112}, {"measurement": "glycan array binding signal (z-score)", "setting": "[12]", "value": -0.129}, {"measurement": "glycan array binding signal (z-score)", "setting": "[13]", "value": -0.133}, {"measurement": "glycan array binding signal (z-score)", "setting": "[14]", "value": -0.129}, {"measurement": "glycan array binding signal (z-score)", "setting": "[15]", "value": -0.111}, {"measurement": "glycan array binding signal (z-score)", "setting": "[16]", "value": -0.113}, {"measurement": "glycan array binding signal (z-score)", "setting": "[17]", "value": -0.123}, {"measurement": "glycan array binding signal (z-score)", "setting": "Fuc(a1-4)GlcNAc", "value": -0.133}, {"measurement": "glycan array binding signal (z-score)", "setting": "Fuc(b1-3)GlcNAc", "value": -0.115}, {"measurement": "glycan array binding signal (z-score)", "setting": "Gal(a1-2)Gal", "value": -0.116}, {"measurement": "glycan array binding signal (z-score)", "setting": "Gal(a1-3)Gal", "value": -0.125}, {"measurement": "glycan array binding signal (z-score)", "setting": "Gal(a1-3)Gal(b1-3)GlcNAc", "value": -0.104}, {"measurement": "glycan array binding signal (z-score)", "setting": "[18]", "value": -0.129}, {"measurement": "glycan array binding signal (z-score)", "setting": "[19]", "value": -0.124}, {"measurement": "glycan array binding signal (z-score)", "setting": "[20]", "value": -0.134}, {"measurement": "glycan array binding signal (z-score)", "setting": "[21]", "value": -0.11}, {"measurement": "glycan array binding signal (z-score)", "setting": "[22]", "value": -0.096}, {"measurement": "glycan array binding signal (z-score)", "setting": "Gal(a1-3)Gal(b1-4)Glc", "value": -0.115}, {"measurement": "glycan array binding signal (z-score)", "setting": "Gal(a1-3)Gal(b1-4)GlcNAc", "value": -0.122}]}
